Test results: PubChem BioAssay AID1963576 (National Center for Advancing Translational Sciences (NCATS), 2024)
Among all 46,000 compounds or so, about 60 (0.1%) were called active. Not shown: some 3% with an inconclusive outcome. Calls come from the whole dose curve; as a rule, active = well fitted inhibition curve with a large enough effect; inconclusive = small, poorly fitted or top-dose-only effect; inactive = no such curve, though single readings can be large or run the other way. The list shows a part of the results.

Assay: Primary qHTS assay for Inhibitors of ovarian cancer metastasis using an organotypic tumor microenvironment (TME) model.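 For activity change, negative = inhibition: plate controls were DMSO wells for no effect and tomatine positive control wells for full effect.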 Note: nearly all actives have a fitted effect of over 65% in size.
Settings: SKOV3ip1-GFP adhesion/invasion on 3D omental model, fluorescence; series mostly up to 45.8 µM; activity change, negative = inhibition: at the top concentration
Summary of the method: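 Adhesion/invasion was scored as fixed GFP-labeled SKOV3ip1 cell counts (488/509 nm), normalized to DMSO and tomatine controls. Cancer cells in serum-free medium, with four compound doses (0.36-46 umol/L), sat 2 hr at RT then 16 hr at 37 C on a 48 hr fibroblast/mesothelial/ECM culture.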

Activity change, negative = inhibition, inactive:
Cc1cccc(NC(=O)Cn2c(=O)n(-c3ccccc3Cl)c(=O)c3c(C)c(C(=O)N(C)C)sc32)c1 -14.5%
Cc1nc2c(C(=O)NCCc3ccc(Cl)cc3)cnn2c(C)c1Cc1c(F)cccc1Cl -1.99%
CCOC(=O)c1ccc(NC(=O)CN(c2ccc(C)cc2)S(=O)(=O)c2c(C)noc2C)cc1 -6.98%
CC(=O)Nc1c(C)nn(-c2ccccc2)c1N1CCC(C(=O)NCc2ccc(Cl)cc2)CC1 2.49%
Cc1cc(C)cc(N2CC(c3nc(-c4ccccc4C)no3)CC2=O)c1 (stereo not given) 1.32%
Cc1cccc(C(=O)Nc2ccc(-c3nc4ccccc4s3)cc2Cl)c1 -12.4%
CCCCNC(=O)C(CC)Sc1nnc(-c2cccc(F)c2)c(-c2cccc(F)c2)n1 (stereo not given) -0.947%
COc1ccc2oc(=O)cc(CN3CCN(c4ccc(F)cc4)CC3)c2c1 -10.7%
CCCCOC(=O)c1ccc(Nc2ncnc3[nH]ncc23)cc1 -20.7%
CCOC(=O)c1ccc(CN(Cc2ccccc2)S(=O)(=O)c2ccc(C)cc2)cc1 -29.4%
COc1ccc(NC(=O)C2=CC(c3cccs3)=NS(=O)(=O)N2C)cc1 0.184%
CC(C)N(CCCNC(=O)Nc1ccc(C(C)(C)C)cc1)C[C@H]1O[C@@H](n2cc(Br)c3c(N)ncnc32)[C@H](O)[C@H]1O -26%
COc1ccc(CC(=O)Nc2nc3c(s2)CC(C(C)(C)C)CC3)cc1 (stereo not given) -1.39%
Cc1ccc(-c2nc3c(c(SCC(=O)N4CCCCC4)n2)Cc2cc(C)ccc2O3)cc1 -1.43%
CCOc1ccc(CC(=O)Nc2ccc3nc(N4CCCCC4)cc(C)c3c2)cc1OCC 5.82%
CCOC(=O)c1cccc(NC(=O)CSc2ncc3c(n2)-c2ccccc2N(C)S3(=O)=O)c1 0.987%
COc1ccccc1CNC(=O)C(Cc1ccccc1)NS(=O)(=O)c1ccc2c(c1)oc(=O)n2C (stereo not given) 1.57%
CC(C)NC(=O)Nc1ccc2c(c1)N(C)C(=O)c1ccccc1S2 2.3%
Cc1nn(Cc2noc(C(=O)NCc3ccc(F)cc3)n2)c(C)c1Br -7.87%
CCc1nnc(NC(=O)CSc2nc3c([nH]c4ccccc43)c(=O)n2-c2cc(C)cc(C)c2)s1 6.81%
CC1CCCCN1Cc1c(O)ccc2c(=O)c(-c3cccc(Cl)c3)c(C(F)(F)F)oc12 (stereo not given) -9.49%
Cc1ccc(-c2noc(COc3ccc(Br)c(C)c3)n2)cc1 -1.79%
O=C(C1CCC(CNS(=O)(=O)c2ccc(Br)s2)CC1)N1CCN(c2ccccc2)CC1 (stereo not given) -0.148%
Cc1nnc(SCc2cc(=O)n3c(C)cccc3n2)s1 -2.72%
Clc1cccc(CNc2ncnc3c2nc2n3CCCC2)c1 4.49%
COc1ccc(Cl)cc1NC(=O)CCc1nc(-c2ccccc2F)no1 -26.9%
Cn1cc(C2=C(c3c4n(c5ccccc35)CCC(CN)C4)C(=O)NC2=O)c2ccccc21 (stereo not given) -21.6%
CCOc1ccc(N2CC(c3nc(-c4cc(OC)c(OC)c(OC)c4)no3)CC2=O)cc1 (stereo not given) 4.28%
Cc1ccc(C)c(NC(=O)C2CCCN(S(=O)(=O)c3c(C)noc3/C=C/N(C)C)C2)c1 (stereo not given) -16.9%
Cc1ccc(-n2nnc3c(sc4nc(C)c(C)cc43)c2=O)cc1Cl 7.95%
COCCNC(=O)C1CCN(S(=O)(=O)c2ccc3c(c2)CCCN3C(C)=O)CC1 11.1%
O=C1C(CCC(O)c2ccc(F)cc2)C(c2ccc(O)cc2)N1c1ccc(F)cc1 (stereo not given) 4.93%
CCOC(=O)c1[nH]c(C)c(CCC(=O)N2CCN(c3ccccc3)CC2)c1C 3.65%
COc1ccc(-c2nc3n(n2)C(c2ccc(OC)cc2)C(C(=O)Nc2cccnc2)=C(C)N3)cc1 (stereo not given) 4.22%
CC(=O)OCC#CCSc1nnc(-c2cccc(Br)c2)o1 -7.01%
CCOC(=O)c1c(C)oc2nc(C)nc(NCC3CCN(Cc4ccc(Cl)cc4)CC3)c12 0.36%
COCCCNC(=O)Cn1c(=O)n(CCCC(=O)NCc2ccc(C)cc2)c(=O)c2ccccc21 -8.42%
CCCC(=O)N(c1ccc2oc(-c3ccccc3)c(C(=O)OCC)c2c1)S(=O)(=O)c1ccc(C)cc1 -1.61%
Cc1ccc(/C=C(\C#N)c2nc(-c3cc4c(ccc5ccccc54)oc3=O)cs2)cc1 4.7%
O=C(NCC(c1ccc2c(c1)OCO2)N1CCOCC1)c1ccc(F)cc1 (stereo not given) -39.9%
CCOc1ccc(-n2c(=O)c3c4c(sc3n(Cc3cccc(Cl)c3)c2=O)CCCC4)cc1 3.76%
CC1=C(c2ccc(C)c(C)c2)S(=O)(=O)N=C1N1CCN(c2cccc(C(F)(F)F)c2)CC1 -7.66%
CC(C)CN(c1ccccc1)S(=O)(=O)c1nnc(NC(=O)c2ccco2)s1 9.01%
Cc1cccc(C(=O)Nc2ccccc2-c2nc(-c3ccccc3)no2)c1 -8.87%
CC(=O)c1c(C)oc2ccc(N(C(=O)Oc3ccccc3)S(=O)(=O)c3ccc(Br)cc3)cc12 -17.4%
CCn1cc(C(=O)N2CCN(c3ccccc3OC)CC2)c(=O)c2cc(S(=O)(=O)N3CCCCC3)ccc21 -7.28%
CCOc1ccc(Sc2cc(C(=O)NCCc3ccc(OC)c(OC)c3)c3ccccc3n2)cc1 -7.73%
COc1cc(OC)c(NC(=O)c2oc3ccc4c(c3c2C)C(=O)CC(C)(C)O4)cc1Cl -3.52%
COc1ccc(NC(=O)N2CCc3c(sc4c3CCCC4)C2c2ccc(F)cc2)cc1 (stereo not given) -1.01%
O=C(CCSCc1ccccc1F)N1CCN(c2ccc(F)cc2)CC1 -19.1%
Cn1cc(C(=O)NCc2ccc(F)cc2)c(=O)c2cc(S(=O)(=O)N3CCCCC3)ccc21 0.0717%
COc1ccc(NC(=O)c2ccc3snnc3c2)cc1OC 51.3%
Cc1ccc(NC(=O)Nc2nnc(N3CCCCC3)s2)c(C)c1 -5.66%
CCc1ccc(CNC(=O)c2cc3c(=O)oc4ccc(C)cc4c3s2)cc1 -9.22%
CCN(C(=O)c1sc2nc3n(c(=O)c2c1C)CCCCC3)c1ccccc1F -0.524%
CCCCc1ccc(NC(=O)Cn2cnc3c2c(=O)n(C)c(=O)n3C)cc1 -8.76%
COc1ccc(-n2cc3c(c2-c2cccc(Br)c2)c(=O)n(C)c(=O)n3C)cc1OC 9.42%
COC(=O)c1ccccc1NC(=O)c1nc(SCc2ccccc2C)ncc1Cl 1.75%
COc1ccccc1NC(=O)CN1C(=O)C(c2ccc(F)cc2)=NC1(C)C 10.6%
Oc1ccccc1-c1nc(/C=C/c2ccc(F)cc2)no1 7.31%
Cc1ccccc1NC(=O)Nc1nnc(N(C)Cc2ccccc2)s1 -4.64%
Cc1cccc(N2CCN(C(=O)Nc3ccc(F)cc3)CC2C)c1 (stereo not given) 10.2%
CCCCCSc1nnc2c(n1)OC(c1ccc(C)s1)N(C(C)=O)c1ccccc1-2 (stereo not given) -5.87%
Cc1ccc(Cn2cc(CCC(=O)NC3CCCCC3)c3ccccc32)cc1 -8.5%

outcome, inactive:
COc1ccc(CCC(=O)NC2CC(=O)N(c3ccc(C)cc3)C2)cc1 (stereo not given)
Cc1ccc(NC(=O)CN2C(=O)CCSc3ccc(S(=O)(=O)N4CCCC4)cc32)cc1
Cc1ccccc1CNC(=O)C(C)n1nc(C)n2c(cc3occc32)c1=O (stereo not given)
CCn1c(CNC(=O)c2ccc(OC)cc2)nnc1SCC(=O)Nc1ccc(OC)cc1
CCc1ccc(-c2nc(CSCC(=O)NCc3ccccc3OC)c(C)o2)cc1
COc1ccc(-c2nc3scc(CCNS(=O)(=O)c4ccc(F)cc4F)n3n2)cc1OC
O=C(NCCc1ccccc1)c1ccc2c(c1)N(Cc1ccccc1Cl)C(=O)c1ccccc1S2
O=C1CC(c2nc3ccccc3n2CCCCOc2ccccc2)CN1c1ccccc1Cl (stereo not given)
CCOc1ccc(Cn2c(=O)oc3ccccc32)cc1
COc1ccc(-n2ncc3c(N4CCN(c5cccc(C)c5)C(C)C4)ncnc32)cc1 (stereo not given)
Cc1c(C(=O)N2CCCC2)oc2c1-c1nn(CC(=O)NCc3cccc(Br)c3)cc1CC2
NS(=O)(=O)c1ccc(NC(=O)CCn2c(=O)oc3ccccc32)cc1
O=C(Cn1c(=O)n(Cc2ccc3c(c2)OCO3)c(=O)c2ccccc21)Nc1cccc(Cl)c1
CCOc1ccc(N(C)S(=O)(=O)c2ccc3c(c2)C(C)(C)C(=O)N3C)cc1
Cn1c(=O)oc2cc(S(=O)(=O)CCC(=O)NCc3ccccc3)ccc21
COc1ccc(CSc2nc3ncccc3[nH]2)cc1
CCN(c1ccccc1)S(=O)(=O)c1nnc(NC(=O)COc2ccc(OC)cc2)s1
O=C(NC1CCCC1)c1c[nH]c2ccc(S(=O)(=O)Nc3cccc(C(F)(F)F)c3)cc2c1=O
COc1cccc(N2CC(NC(=O)c3ccc(S(=O)(=O)N4CCCC4)cc3)CC2=O)c1 (stereo not given)
CCCCN1CC(c2nc3ccccc3n2CCCCOc2c(C)cccc2C)CC1=O (stereo not given)
Cc1ccc(NC(=O)Cn2c(=O)n(-c3ccc(CC(=O)NCC4CCCO4)cc3)c(=O)c3ccccc32)cc1 (stereo not given)
COc1ccc(-c2nn(-c3ccccc3)cc2C(=O)Nc2ccccc2OC)cc1
O=C(O)c1cccc(NC(=O)c2cccc(S(=O)(=O)Nc3cccc(C(=O)O)c3)c2)c1
CCn1c(=O)c2cc(C(=O)N(C)c3cc(C)ccc3C)sc2c2ccccc21
CCOc1ccccc1NC(=O)Cn1c(=O)n(Cc2ccc(C(=O)NCCCOC)cc2)c(=O)c2ccccc21
CN(C)C(=O)c1ccc(S(=O)(=O)NCc2ccccc2Cl)s1
COc1cc(OC)cc(-n2c(=O)[nH]c3cc(C(=O)NCCc4ccc(C)cc4)ccc3c2=O)c1
COc1ccc(-c2cc(C(F)(F)F)nc(SCC(=O)NCc3ccc(F)cc3)n2)cc1
COc1cccc(NC(=O)Cn2c(=O)n(Cc3ccccc3)c(=O)c3c4c(sc32)CN(C(C)=O)CC4)c1
Cc1c(Cl)cccc1N1CC(c2nc3ccccc3n2Cc2ccccc2F)CC1=O (stereo not given)
COc1ccc(S(=O)(=O)NC2(C(F)(F)F)NC(=O)N(CCc3ccccc3)C2=O)cc1 (stereo not given)
